Among all 150,000 compounds or so, about 540 (0.36%) showed an effect of 50% or more. Some of the results follow.

The test deals with Plasmodium falciparum. The test can be described thus: Primary screen in NF54 nanoGlo assay, in single point, at 2uM, 72h; a lower Z score goes with more inhibition. Type of test: functional, Erythrocyte. Conditions: timepoint 72 hour.
In the case of `CC(=O)NC[C@H]1CCCN(c2nc3nonc3nc2N2CCCCC2)C1`, the % Inhibition (commonly the drop in the measured response relative to a control, in per cent) is on record as -13% and the Z score came to 1.75.

As for `Cc1c(C(=O)N[C@@H]2CCC[C@@H]2n2ccnc2)nnn1-c1cnn(C)c1`, the “% Inhibition” value was -1% and the Z score is on record as 0.14.

As for `CC(C)C/C=C(\CN1C[C@H](N)[C@@H](O)C1)c1ccccc1`, the “% Inhibition” value is on record as -6% and the Z score is on record as 1.17.

With `CC[C@H](NC(=O)c1cc(C)nc(C)n1)C1CC(O)C1` (some centres not stated), the “% Inhibition” value is on record as -20% and the Z score was determined as 2.68.

For `CCCc1cc(-c2ccnn2C(C)C)nc(C)n1`, the “% Inhibition” value was -17% and the Z score is given as 1.63.

On to `Cc1cccc(CNS(=O)(=O)c2cc(C(=O)N3CCCCC3)cs2)c1`, for which the “% Inhibition” value is given as -11% and the Z score is listed as 1.11.

`O=C1CCC2(CCN1)CCN(C/C=C/c1ccccc1)CC2`: the “% Inhibition” value is given as -19% and the Z score was determined as 1.86.

Consider `CCn1nc(C(=O)N2CC[C@H](Oc3ccc(C)cn3)C2)cc1C1CC1`, for which the “% Inhibition” value is 3% and the Z score is -0.48.

In the case of `CN1N=C(C(=O)N2CCc3ccccc32)CCC1=O`, the “% Inhibition” value is -2% and the Z score is 0.37.

As for `Cc1cccc(C(=O)N[C@@H](C)C(=O)Nc2nc3c(s2)CCC3)c1`, the “% Inhibition” value is reported as -4% and the Z score amounted to 0.67.

On to `N#Cc1cccc(-c2ccnc(N[C@H]3CO[C@H]4[C@@H]3OC[C@@H]4NC(=O)c3ccc(C(F)(F)F)cc3)n2)c1`, for which the “% Inhibition” value is given as -7% and the Z score worked out at 1.07.

For `Cc1n[nH]c(C)c1-c1cccc(C(=O)N(C)C)n1`, the “% Inhibition” value was -5% and the Z score came to 0.69.

With `Cc1n[nH]c(=O)nc1N1CCC2(CC1)OCCO2`, the “% Inhibition” value worked out at 4% and the Z score is reported as -0.55.

As for `COc1ccc(C[C@@H]2NC(=O)[C@H](C(C)C)NC2=O)cc1`, the “% Inhibition” value is given as -5% and the Z score is 0.61.

For the molecule `CN(Cc1ccon1)C(=O)C1CCC(NC(=O)CC2CCCCC2)CC1` (configuration not stated), the “% Inhibition” value is -2% and the Z score came to 0.38.

On to `CC(C)[C@H](NC(=O)Nc1cc(Cl)ccc1Cl)c1ncc[nH]1`, for which the “% Inhibition” value is listed as -5% and the Z score is recorded as 0.62.

On to `Cc1c(S(=O)(=O)N2CCC[C@@](CO)(CN(C)C)C2)sc2ccc(C#N)cc12`, for which the “% Inhibition” value turned out to be 1% and the Z score is -0.17.

As to `NC(=O)C1(NC(=O)c2ccc3nc(-c4ccc(F)cc4)cn3c2)CCCC1`, the “% Inhibition” value is reported as -24% and the Z score was 2.53.

`Cc1c(-c2ccc(C(=O)NC[C@H]3CCCO3)cc2)cnn1C(F)F`: the “% Inhibition” value is recorded as 9% and the Z score is -1.18.

In the case of `O=C(CN1C(=O)[C@@H]2CCCN2C(=O)c2ccccc21)Nc1ccc(F)c(F)c1F`, the “% Inhibition” value is recorded as -15% and the Z score turned out to be 1.71.

As for `C[C@H]1CCc2ccccc2N1Cc1ccc(C(=O)O)o1`, the “% Inhibition” value is recorded as -8% and the Z score came to 0.79.

For `O=C(Cn1ncccc1=O)N1CCC(Oc2cccc3cccnc23)CC1`, the “% Inhibition” value is -14% and the Z score is recorded as 2.68.

Regarding `CC(C)c1cc(C(=O)N2CCCCCCC2)n(C)n1`, the “% Inhibition” value is -6% and the Z score amounted to 1.24.

Regarding `Cc1ccc(S(=O)(=O)NC(C)C)c(C)c1`, the “% Inhibition” value turned out to be 31% and the Z score is given as -0.92.

Take `COc1ccc(N2CCN(C(=O)c3snc4c(=O)n(C)c(=O)[nH]c34)CC2)cc1`: the “% Inhibition” value is reported as -7% and the Z score amounted to 1.19.

Regarding `COc1ccc(CC(=O)N2CC[C@@H](CC(=O)O)[C@@H](CCN(C)c3ccccc3)C2)cc1`, the “% Inhibition” value was -5% and the Z score is 0.82.

Turning to `CC[C@@H](C(=O)Nc1cc(OC)ccc1OC)n1nc(C)c2c(C)onc2c1=O`, the “% Inhibition” value is -12% and the Z score is 1.21.

On to `O=C(c1coc(Br)c1)N1C2COCC1C2`, for which the “% Inhibition” value is -10% and the Z score worked out at 1.26.

As for `COc1cccc(CCCN(CCCO)Cc2ccccn2)c1`, the “% Inhibition” value was -5% and the Z score was 0.8.

With `O=C(CN1C(=O)C2(CCCC2)N=C1O)N1CCC(Cc2ccccc2)CC1`, the “% Inhibition” value is listed as 31% and the Z score is on record as -3.5.

With `CCOC(=O)c1cnn(CN(CC)CC(F)(F)F)c1C(F)F`, the “% Inhibition” value is reported as 5% and the Z score is -0.51.

`CCn1c(C(=O)NCCN2CCOCC2)cc2cc(NC(=O)c3ccco3)ccc21`: the “% Inhibition” value was -1% and the Z score is 0.1.

On to `Nc1cc(N2C[C@H](O)[C@@H](F)C2)nc(N2CCOCC2)n1`, for which the “% Inhibition” value is on record as -9% and the Z score came to 0.99.

In the case of `CC[C@H](C)NC(=O)c1cc(NS(=O)(=O)c2ccc3c(c2)CCCC3)ccc1N1CCNCC1`, the “% Inhibition” value is listed as -10% and the Z score is reported as 1.21.

`COC(=O)c1ccc(C(=O)Nc2nc(-c3cccc4ccccc34)cs2)cc1`: the “% Inhibition” value was -2% and the Z score is listed as 0.4.

As for `CC(C)(C)c1nc(CN2CCN(c3ncccn3)CC2)no1`, the “% Inhibition” value was -2% and the Z score is on record as 0.28.

As for `Cc1ccc(-n2nc3c(=O)n(CCCC(=O)N4CCc5ccccc5C4)nc(C)c3c2C)cc1`, the “% Inhibition” value is reported as 18% and the Z score was -2.11.

Regarding `COc1cccc(CNC(=O)N2CCC[C@H](Oc3nc(C(C)C)nc4c3CCOCC4)C2)c1`, the “% Inhibition” value is -5% and the Z score was found to be 0.74.

Take `CCCc1noc(-c2ccnc(-n3cnc(C(=O)N4CCC[C@H](C)C4)c3)c2)n1`: the “% Inhibition” value is listed as -6% and the Z score is recorded as 1.13.

As for `Cc1ccccc1C(=O)N1C[C@H](O)C[C@H]1c1n[nH]c(-c2ccccc2)n1`, the “% Inhibition” value is recorded as -2% and the Z score amounted to 0.3.

For `CC(=O)N1CCC(NC(=O)COc2ccc(-c3ccccc3)cc2Cl)CC1`, the “% Inhibition” value is reported as -11% and the Z score is on record as 1.5.
